Assay results taken from the supplement of paper PMC11060735.
Structures can show the parent of a compound that is named as a salt. Out of some 1,800 compounds screened, about 50 (3%) showed activity. The list shows a part of the results.

What follows are compounds tested on mouse p16Ink4a+/- lung fibroblasts (INKBRITE, bleomycin-injured) (assay: percentage of GFP+ (p16Ink4a+) fibroblasts among all cells in well; higher = less depletion of p16Ink4a+ cells, active = 20 or less). Details: 1 µM; 3 days.
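Also: fibroblasts sorted 14 days after bleomycin, GFP+ and GFP− mixed 1:1 in 384-well plates (GFP− as in-well control), imaged after Hoechst and NucView530 staining, reference wells lacked compound.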

| SMILES | percentage of GFP+ |
| --- | --- |
| CN(C)CCC(c1ccc(Br)cc1)c1ccccn1 (stereo unspecified) [Brompheniramine] | inactive: 35.9% |
| CC(C)c1c(C(=O)Nc2ccccc2)c(-c2ccccc2)c(-c2ccc(F)cc2)n1CC[C@@H](O)C[C@@H](O)CC(=O)O [Atorvastatin] | inactive: 41.6% |
| COc1ccc2c(Oc3ccc(NC(=O)c4c(C)n(CC(C)(C)O)n(-c5ccccc5)c4=O)nc3)ccnc2c1 | inactive: 32.7% |
| CC1(C)SC2C(NC(=O)[C@H](NC(=O)N3CCNC3=O)c3ccccc3)C(=O)N2C1C(=O)O (stereo partly specified) [Azlocillin sodium salt] | inactive: 51.2% |
| C[C@@H](N)[C@H]1CC[C@H](C(=O)Nc2ccncc2)CC1 | inactive: 45.5% |
| O=C(O)c1ccc(Nc2ncc3c(n2)-c2ccc(Cl)cc2C(c2c(F)cccc2F)=NC3)cc1 | inactive: 31.1% |
| COc1ncc(-c2ccc3nccc(-c4ccnnc4)c3c2)cc1NS(=O)(=O)c1ccc(F)cc1F | inactive: 21.6% |
| Cc1ccc2c(Cl)cc(Cl)c(O)c2n1 [Chlorquinaldol] | inactive: 45% |
| CC1(C)O[C@@H]2C[C@H]3[C@@H]4CCC5=CC(=O)C=C[C@]5(C)[C@H]4[C@@H](O)C[C@]3(C)[C@]2(C(=O)CO)O1 [Desonide] | inactive: 46.7% |
| CNC(=O)c1ccc2cc(C3(O)CCn4cncc43)ccc2c1 (stereo unspecified) [Orteronel] | inactive: 34.6% |
| Cc1ccccc1C(C(=O)NC1CCCCC1)N(C(=O)Cn1ccnc1C)c1cccc(F)c1 (stereo unspecified) | inactive: 46.1% |
| COCCn1c2c([n+](Cc3cnccn3)c1C)C(=O)c1ccccc1C2=O [Sepantronium Bromide] | inactive: 25.5% |
| COc1ccc(C[C@H](C)NC[C@@H](O)c2ccc(O)c(NC=O)c2)cc1 [Formoterol Fumarate Dihydrate] | inactive: 46.6% |
| O=C(O)c1cc(-c2ccccc2)nc2ccccc12 [Cinchophen] | inactive: 46.7% |
| COc1ccc2cc1Oc1ccc(cc1)C[C@H]1c3c(cc4c(c3Oc3cc5c(cc3OC)CCN(C)[C@@H]5C2)OCO4)CCN1C [Cepharanthine] | inactive: 57.3% |
| O=C1c2ccccc2C(=O)C1c1ccccc1 [Phenindione] | inactive: 43.9% |
| CN(C)C(=O)c1ccc(S(=O)(=O)c2ccc(NC(=O)[C@@](C)(O)C(F)(F)F)c(Cl)c2)cc1 | inactive: 51.7% |
| CC(N)C12CC3CC(CC(C3)C1)C2 (stereo unspecified) [Rimantadine] | inactive: 38.6% |
| C/C=C1/[C@H]2C=C(C)C[C@]1(N)c1ccc(O)nc1C2 [(-)-Huperzine A (HupA)] | inactive: 45.8% |
| COc1ccc(C[C@@H]2c3cc(OC)c(OC)cc3CC[N@+]2(C)CCC(=O)OCCCCCOC(=O)CC[N@@+]2(C)CCc3cc(OC)c(OC)cc3[C@H]2Cc2ccc(OC)c(OC)c2)cc1OC [Cisatracurium Besylate] | inactive: 38.1% |
| CCOC(=O)c1c(C)n(C)c2ccc(O)cc12 [Mecarbinate] | inactive: 37.4% |
